Test results published in patent publication US11155596B2, “Polypeptide” (AFFIBODY AB, priority 2016, dated 2021).

Molecular target: PD-L1 on PD-L1 expressing cells (IFNg-stimulated THP-1 cells; MDA-MB-231 cells) (Homo sapiens (Human)), Q9NZQ7
Test: FACS, MDA-MB-231 cells, 0.625 µg/ml; negative control (buffer) 69
Details: remark: other sources report otherwise

PD-L1 on PD-L1 expressing cells (IFNg-stimulated THP-1 cells; MDA-MB-231 cells) (Homo sapiens (Human)), Q9NZQ7, sequence (Q9NZQ7 19-290 limits assumed): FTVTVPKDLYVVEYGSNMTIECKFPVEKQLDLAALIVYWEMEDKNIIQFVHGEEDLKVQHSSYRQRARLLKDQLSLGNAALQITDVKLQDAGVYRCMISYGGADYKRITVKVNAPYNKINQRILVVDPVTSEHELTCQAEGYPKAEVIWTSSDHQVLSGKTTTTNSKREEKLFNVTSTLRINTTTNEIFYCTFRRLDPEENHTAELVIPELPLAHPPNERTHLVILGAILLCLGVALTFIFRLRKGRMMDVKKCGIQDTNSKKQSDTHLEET

MFI: 62
B1: Lam (antibody)
heavy: QVQLVQSGVEVKKPGASVKVSCKASGYTFTNYYMYWVRQAPGQGLEWMGGINPSNGGTNFNEKFKNRVTLTTDSSTTTAYMELKSLQFDDTAVYYCARRDYRFDMGFDYWGQGTTVTVSSASTKGPSVFPLAPCSRSTSESTAALGCLVKDYFPEPVTVSWNSGALTSGVHTFPAVLQSSGLYSLSSVVTVPSSSLGTKTYTCNVDHKPSNTKVDKRV[here human IgG4 Fc with S228P (EU numbers) without letters]
light: EIVLTQSPATLSLSPGERATLSCRASKGVSTSGYSYLHWYQQKPGQAPRLLIYLASYLESGVPARFSGSGSGTDFTLTISSLEPEDFAVYYCQHSRDLPLTFGGGTKVEIKRTVAAPSVFIFPPSDEQLKSGTASVVCLLNNFYPREAKVQWKVDNALQSGNSQESVTEQDSKDSTYSLSSTLTLSKADYEKHKVYACEVTHQGLSSPVTKSFNRGEC
